B1: AUGAUUC (DNA:RNA)
RNA: GGGAGACCGGAAUUCAGAUUGUCCAUGAUUCUUAAAUCCCGUCGUAGCCACCA
DNA 1: CAATCTGAATTCCGGTCTCCC
DNA 2: TGGTGGCTACGACGGGATT
B2: CUGCGUU (DNA:RNA)
RNA: B1 RNA with A25C, A28C, U29G, C31U
DNA 1: CAATCTGAATTCCGGTCTCCC
DNA 2: TGGTGGCTACGACGGGATT
B3: UGAGUCA (DNA:RNA)
RNA: B1 RNA with A25U, U26G, G27A, A28G, U30C, C31A
DNA 1: CAATCTGAATTCCGGTCTCCC
DNA 2: TGGTGGCTACGACGGGATT
B4: UAGACCC (DNA:RNA)
RNA: B1 RNA with A25U, U26A, U29C, U30C
DNA 1: CAATCTGAATTCCGGTCTCCC
DNA 2: TGGTGGCTACGACGGGATT
B5: AUGCGUA (DNA:RNA)
RNA: B1 RNA with A28C, U29G, C31A
DNA 1: CAATCTGAATTCCGGTCTCCC
DNA 2: TGGTGGCTACGACGGGATT
B6: CUCAAAC (DNA:RNA)
RNA: B1 RNA with A25C, G27C, U29A, U30A
DNA 1: CAATCTGAATTCCGGTCTCCC
DNA 2: TGGTGGCTACGACGGGATT
B7: AAUAGCG (DNA:RNA)
RNA: B1 RNA with U26A, G27U, U29G, U30C, C31G
DNA 1: CAATCTGAATTCCGGTCTCCC
DNA 2: TGGTGGCTACGACGGGATT
B8: CUGAAUA (DNA:RNA)
RNA: B1 RNA with A25C, U29A, C31A
DNA 1: CAATCTGAATTCCGGTCTCCC
DNA 2: TGGTGGCTACGACGGGATT
B9: CUGGUCA (DNA:RNA)
RNA: B1 RNA with A25C, A28G, U30C, C31A
DNA 1: CAATCTGAATTCCGGTCTCCC
DNA 2: TGGTGGCTACGACGGGATT
B10: AGAUAAG (DNA:RNA)
RNA: B1 RNA with U26G, G27A, A28U, U29A, U30A, C31G
DNA 1: CAATCTGAATTCCGGTCTCCC
DNA 2: TGGTGGCTACGACGGGATT
B11: ACUCUAG (DNA:RNA)
RNA: B1 RNA with U26C, G27U, A28C, U30A, C31G
DNA 1: CAATCTGAATTCCGGTCTCCC
DNA 2: TGGTGGCTACGACGGGATT
B12: GAGACGC (DNA:RNA)
RNA: B1 RNA with A25G, U26A, U29C, U30G
DNA 1: CAATCTGAATTCCGGTCTCCC
DNA 2: TGGTGGCTACGACGGGATT
B13: GCUUGAU (DNA:RNA)
RNA: GGGAGACCGGAAUUCAGAUUGUCCGCUUGAUUUAAAUCCCGUCGUAGCCACCA
DNA 1: CAATCTGAATTCCGGTCTCCC
DNA 2: TGGTGGCTACGACGGGATT
B14: UUGCACU (DNA:RNA)
RNA: B1 RNA with A25U, A28C, U29A, U30C, C31U
DNA 1: CAATCTGAATTCCGGTCTCCC
DNA 2: TGGTGGCTACGACGGGATT
B15: ACCCCAA (DNA:RNA)
RNA: B13 RNA with G25A, U27C, U28C, G29C, U31A
DNA 1: CAATCTGAATTCCGGTCTCCC
DNA 2: TGGTGGCTACGACGGGATT
B16: CGAACCG (DNA:RNA)
RNA: B1 RNA with A25C, U26G, G27A, U29C, U30C, C31G
DNA 1: CAATCTGAATTCCGGTCTCCC
DNA 2: TGGTGGCTACGACGGGATT
B17: UACGCGU (DNA:RNA)
RNA: B13 RNA with G25U, C26A, U27C, U28G, G29C, A30G
DNA 1: CAATCTGAATTCCGGTCTCCC
DNA 2: TGGTGGCTACGACGGGATT
B18: AACCUGG (DNA:RNA)
RNA: B1 RNA with U26A, G27C, A28C, U30G, C31G
DNA 1: CAATCTGAATTCCGGTCTCCC
DNA 2: TGGTGGCTACGACGGGATT
B19: UCAAUGU (DNA:RNA)
RNA: B1 RNA with A25U, U26C, G27A, U30G, C31U
DNA 1: CAATCTGAATTCCGGTCTCCC
DNA 2: TGGTGGCTACGACGGGATT
B20: UGAGGGU (DNA:RNA)
RNA: B13 RNA with G25U, C26G, U27A, U28G, A30G
DNA 1: CAATCTGAATTCCGGTCTCCC
DNA 2: TGGTGGCTACGACGGGATT

Residue numbers refer to the chain shown, from its start. Some of the results follow.

The target of this assay is T1, RBFOX1 RRM (Homo sapiens, UniProt Q9NWB1 109-208).
T1 sequence: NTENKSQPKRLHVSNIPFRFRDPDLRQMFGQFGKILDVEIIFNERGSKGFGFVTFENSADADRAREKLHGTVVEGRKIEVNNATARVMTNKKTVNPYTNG
Briefly: EMSA; HiTS-Eq, 1 nM pool, 10 min; buffer printed only for the single-RNA assays: 10 mM Tris pH 7.5, 150 mM NaCl, 3.4 mM EDTA, 0.001% NP-40, 30 C. Particulars: tags: His6 N-terminal (pET28a); label: 5' 32P. The method, boiled down: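 These values rest on relative association constants, computed from read-count changes of each RNA species versus the control reaction and normalised to the cognate motif. Reads came from free RNA recovered by 8% native PAGE after purified RbFox RRM (wild type or mutant) at increasing concentrations was equilibrated for 10 min in 50 µL with 1 nM of a 5′-radiolabelled pool with 7 randomized nucleotides and DNA-annealed flanks.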
Take B1: the binding signal is 0.0121 KA relative to UGCAUGU. For B2 the value was 0.0126 KA relative to UGCAUGU. Then B3, with 0.0145 KA relative to UGCAUGU; and B4, with 0.00493 KA relative to UGCAUGU; and B5, with 0.0103 KA relative to UGCAUGU.

Consider B6, for which the binding signal was 0.00277 KA relative to UGCAUGU. On to B7, for which the binding signal was 0.00691 KA relative to UGCAUGU. Regarding B8, the binding signal was 0.00691 KA relative to UGCAUGU. In the case of B9, the binding signal was 0.0175 KA relative to UGCAUGU. In the case of B10, the binding signal is 0.0073 KA relative to UGCAUGU. Then B11, with 0.00253 KA relative to UGCAUGU; and B12, with 0.0106 KA relative to UGCAUGU. As to B13, the binding signal was 0.0264 KA relative to UGCAUGU. For the molecule B14, the binding signal was 0.021 KA relative to UGCAUGU.

Regarding B15, the binding signal is 0.000575 KA relative to UGCAUGU. In the case of B16, the binding signal is 0.00395 KA relative to UGCAUGU.

For B17, the binding signal was 0.0119 KA relative to UGCAUGU.

As for B18, the binding signal is 0.00933 KA relative to UGCAUGU. Consider B19, for which the binding signal was 0.00747 KA relative to UGCAUGU.

As to B20, the binding signal was 0.00661 KA relative to UGCAUGU.

The record behind these values is paper PMC9911399, “Two distinct binding modes provide the RNA-binding protein RbFox with extraordinary sequence specificity”.
